The values below come from article PMC8979985.

Sequences of proteins named here, by UniProt entry; tags and fusion partners are left off. A change or cut given only in a name is not applied to a line headed by its entry. A line that says so, or that is headed by a name, gives the form on record, which may keep a tag or linker. Residues count along the entry.
UniProt P00519: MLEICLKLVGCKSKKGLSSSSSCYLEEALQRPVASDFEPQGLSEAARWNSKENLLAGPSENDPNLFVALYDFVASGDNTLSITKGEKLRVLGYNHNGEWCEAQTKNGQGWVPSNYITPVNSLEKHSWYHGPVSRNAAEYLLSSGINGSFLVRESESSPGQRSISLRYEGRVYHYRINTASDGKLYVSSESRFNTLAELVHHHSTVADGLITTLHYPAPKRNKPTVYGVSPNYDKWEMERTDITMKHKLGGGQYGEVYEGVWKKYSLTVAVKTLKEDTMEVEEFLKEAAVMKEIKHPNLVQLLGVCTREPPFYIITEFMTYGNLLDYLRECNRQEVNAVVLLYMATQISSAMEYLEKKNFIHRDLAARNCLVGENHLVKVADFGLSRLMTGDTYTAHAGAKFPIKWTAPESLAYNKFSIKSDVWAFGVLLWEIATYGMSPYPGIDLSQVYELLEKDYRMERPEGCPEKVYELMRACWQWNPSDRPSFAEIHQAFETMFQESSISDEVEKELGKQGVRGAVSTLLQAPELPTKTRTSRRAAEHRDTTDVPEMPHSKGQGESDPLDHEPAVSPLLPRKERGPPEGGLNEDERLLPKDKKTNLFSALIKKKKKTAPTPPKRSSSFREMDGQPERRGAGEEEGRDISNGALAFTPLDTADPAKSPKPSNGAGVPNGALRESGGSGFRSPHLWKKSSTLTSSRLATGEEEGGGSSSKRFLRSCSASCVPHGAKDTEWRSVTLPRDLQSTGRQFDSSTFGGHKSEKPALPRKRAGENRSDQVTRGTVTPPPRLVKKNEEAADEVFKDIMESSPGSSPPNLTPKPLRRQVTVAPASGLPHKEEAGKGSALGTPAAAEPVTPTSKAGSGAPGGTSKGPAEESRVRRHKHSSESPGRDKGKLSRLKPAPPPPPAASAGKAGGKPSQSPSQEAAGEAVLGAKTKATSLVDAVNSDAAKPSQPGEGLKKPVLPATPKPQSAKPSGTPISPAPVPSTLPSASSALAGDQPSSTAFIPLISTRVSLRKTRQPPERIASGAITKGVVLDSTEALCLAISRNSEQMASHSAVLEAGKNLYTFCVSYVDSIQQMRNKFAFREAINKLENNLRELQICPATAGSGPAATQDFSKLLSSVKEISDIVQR
GST-c-Abl-SH3: residues 61-121 of P00519
Myc-c-Abl (P00519-2, form named): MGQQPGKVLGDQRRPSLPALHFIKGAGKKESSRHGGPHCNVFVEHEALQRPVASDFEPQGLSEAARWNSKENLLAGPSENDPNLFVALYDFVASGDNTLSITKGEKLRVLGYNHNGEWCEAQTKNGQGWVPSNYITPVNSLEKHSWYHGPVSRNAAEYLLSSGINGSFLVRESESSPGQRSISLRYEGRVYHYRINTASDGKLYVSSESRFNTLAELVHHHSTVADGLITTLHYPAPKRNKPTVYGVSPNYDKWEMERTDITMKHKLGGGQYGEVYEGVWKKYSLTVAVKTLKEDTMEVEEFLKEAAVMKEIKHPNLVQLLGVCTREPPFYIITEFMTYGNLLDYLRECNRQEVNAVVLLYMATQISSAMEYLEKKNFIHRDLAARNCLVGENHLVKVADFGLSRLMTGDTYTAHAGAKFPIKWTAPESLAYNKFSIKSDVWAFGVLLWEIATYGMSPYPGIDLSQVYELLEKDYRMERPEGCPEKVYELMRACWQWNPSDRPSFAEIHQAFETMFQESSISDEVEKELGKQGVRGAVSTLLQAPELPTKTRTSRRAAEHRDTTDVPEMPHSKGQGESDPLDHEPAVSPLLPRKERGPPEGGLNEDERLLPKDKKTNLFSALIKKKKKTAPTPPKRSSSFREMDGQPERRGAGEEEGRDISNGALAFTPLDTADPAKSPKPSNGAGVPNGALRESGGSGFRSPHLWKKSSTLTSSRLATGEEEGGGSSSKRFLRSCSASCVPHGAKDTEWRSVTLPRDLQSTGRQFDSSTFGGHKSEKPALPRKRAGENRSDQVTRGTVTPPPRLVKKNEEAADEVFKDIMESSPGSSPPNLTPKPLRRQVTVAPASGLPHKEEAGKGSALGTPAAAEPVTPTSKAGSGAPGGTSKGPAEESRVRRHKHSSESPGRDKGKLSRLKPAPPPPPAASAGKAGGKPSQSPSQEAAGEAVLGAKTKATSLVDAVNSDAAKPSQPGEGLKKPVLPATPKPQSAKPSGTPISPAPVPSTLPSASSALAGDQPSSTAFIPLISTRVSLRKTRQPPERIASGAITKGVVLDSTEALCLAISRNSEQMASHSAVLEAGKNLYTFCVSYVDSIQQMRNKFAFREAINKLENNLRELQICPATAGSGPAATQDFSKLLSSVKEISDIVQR
UniProt O00165: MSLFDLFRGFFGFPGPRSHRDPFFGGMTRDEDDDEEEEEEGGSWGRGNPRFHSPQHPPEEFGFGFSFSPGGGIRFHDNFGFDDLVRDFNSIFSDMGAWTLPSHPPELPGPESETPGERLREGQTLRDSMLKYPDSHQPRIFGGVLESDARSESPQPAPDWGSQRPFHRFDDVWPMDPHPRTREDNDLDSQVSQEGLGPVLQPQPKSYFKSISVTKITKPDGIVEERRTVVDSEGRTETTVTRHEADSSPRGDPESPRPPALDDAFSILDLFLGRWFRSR
Myc-HAX-1(Q190X): residues 1-189 of O00165
Myc-HAX-1 (1–128): residues 1-128 of O00165
Myc-HAX-1 (129–279): residues 129-279 of O00165

Results are given in words; binding and its absence hold for the method and conditions named. Binding seen in cells or lysates may run through a third protein. Some entries that bind do so weakly or less than the wild type.

Experiment [1] addresses GST-c-Abl-SH3 (UniProt P00519). Description: pull-down; 2 μg of GST or GST fusion protein on glutathione Sepharose beads incubated with lysates of transfected HEK 293 cells for 2 h at 4°C; washed with lysis buffer; immunoblot; only the target purified. For orientation: Immunoblotting shows a protein as a band on a membrane.
The target in experiment [2] is c-Abl kinase (endogenous, MCF-7) (human (endogenous in MCF-7)) (UniProt P00519). Nature of the experiment: proximity ligation; Duolink in situ PLA on fixed MCF-7 cells with rabbit anti-HAX-1 and mouse anti-c-Abl; cells untreated or treated with CDDP (25 mM, 8 h) or H2O2 (1 mM, 3 h; dose series).
Experiment [3] shares this target. Nature of the experiment: co-IP; anti-c-Abl (K-12) immunoprecipitates of MCF-7 lysates, IgG as control, immunoblot; lysis buffer 50 mM Tris-HCl pH 7.5, 150 mM NaCl, 1% Nonidet P-40, 0.5 mM EDTA; cells untreated, treated with H2O2 (1 mM, 3 h), irradiated (10 Gy) or transfected with HAX-1.
Experiment [4] concerns the target Flag-c-Abl (UniProt P00519). Description: co-IP; HEK 293 cells co-transfected with Flag- and Myc-tagged plasmids; anti-Flag agarose immunoprecipitates, immunoblot with anti-Myc or anti-Flag; lysis buffer 50 mM Tris-HCl pH 7.5, 150 mM NaCl, 1% Nonidet P-40, 0.5 mM EDTA.
The target in experiment [5] is phosphorylated c-Abl (endogenous, MCF-7) (human (endogenous in MCF-7)) (UniProt P00519). Nature of the experiment: proximity ligation; in situ PLA on MCF-7 cells transfected with Myc-HAX-1 or Myc-vector; primary antibodies from two different species.
The target in experiment [6] is Flag-HAX-1 (human) (UniProt O00165). Description: co-IP; HEK 293 cells co-transfected with Flag- and Myc-tagged plasmids; anti-Flag agarose immunoprecipitates, immunoblot with anti-Myc or anti-Flag; lysis buffer 50 mM Tris-HCl pH 7.5, 150 mM NaCl, 1% Nonidet P-40, 0.5 mM EDTA.

As for “Flag-HAX-1 (from UniProt O00165-1 1-279)”, in experiment [1], the binding result is listed as “binds”. On to “HAX-1 (endogenous, MCF-7) (from UniProt O00165 1-279)”, for which the binding result in experiment [2] and in experiment [3] was “binds” each time. Take “Myc-HAX-1 (1–128) (from UniProt O00165-1 1-128) (domain or fragment)”: the binding entry in experiment [1] is listed as “no binding (tested: 2 μg of GST-c-Abl-SH3 on the beads)”; in experiment [4] it was “no binding”. For “Myc-HAX-1 (129–279) (from UniProt O00165-1 129-279) (domain or fragment)”, in that order: “binds” and “binds”. On to Myc-HAX-1 (from UniProt O00165-1 1-279), for which the binding result in experiment [4] was “binds”. Regarding “Myc-HAX-1 (in MCF-7 cells) (from UniProt O00165-1 1-279)”, the binding result in experiment [5] is reported as “binds”. In the case of “Myc-HAX-1(Q190X) (from UniProt O00165-1 1-189) (domain or fragment)”, in experiment [4], the binding result was “no binding”.

As to “Myc-c-Abl (from UniProt P00519-2 1-1149) (enzyme)”, the binding entry in experiment [6] is reported as “binds”.
